Results on 112 compounds are retold here after PubChem BioAssay AID488969 (Vanderbilt High Throughput Screening Facility, 2010).

Over roughly 110,000 compounds, “z-score” has its median near -0.1; the highest 2% begin near 2. The list shows a part of the results. Active and inactive are the calls of the source.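 Rule for the calls: active = z-score in the third read window above 3 or below -3; inactive = the rest.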

The assay has as its target Metabotropic glutamate receptor 8 (Rattus norvegicus) (UniProt P70579). Description: rat mGluR8 modulators via GIRK flux, primary screen, cell-based, thallium flux, HTS (AID 488969). The settings on record: HEK293 rat mGluR8, GIRK (G protein-gated inwardly rectifying potassium channel) thallium flux, FluoZin2; at 10 µM; stronger effect = higher value; submaximal glutamate (EC20) added with thallium.
Chain of UniProt P70579 (P70579 whole entry, looked up): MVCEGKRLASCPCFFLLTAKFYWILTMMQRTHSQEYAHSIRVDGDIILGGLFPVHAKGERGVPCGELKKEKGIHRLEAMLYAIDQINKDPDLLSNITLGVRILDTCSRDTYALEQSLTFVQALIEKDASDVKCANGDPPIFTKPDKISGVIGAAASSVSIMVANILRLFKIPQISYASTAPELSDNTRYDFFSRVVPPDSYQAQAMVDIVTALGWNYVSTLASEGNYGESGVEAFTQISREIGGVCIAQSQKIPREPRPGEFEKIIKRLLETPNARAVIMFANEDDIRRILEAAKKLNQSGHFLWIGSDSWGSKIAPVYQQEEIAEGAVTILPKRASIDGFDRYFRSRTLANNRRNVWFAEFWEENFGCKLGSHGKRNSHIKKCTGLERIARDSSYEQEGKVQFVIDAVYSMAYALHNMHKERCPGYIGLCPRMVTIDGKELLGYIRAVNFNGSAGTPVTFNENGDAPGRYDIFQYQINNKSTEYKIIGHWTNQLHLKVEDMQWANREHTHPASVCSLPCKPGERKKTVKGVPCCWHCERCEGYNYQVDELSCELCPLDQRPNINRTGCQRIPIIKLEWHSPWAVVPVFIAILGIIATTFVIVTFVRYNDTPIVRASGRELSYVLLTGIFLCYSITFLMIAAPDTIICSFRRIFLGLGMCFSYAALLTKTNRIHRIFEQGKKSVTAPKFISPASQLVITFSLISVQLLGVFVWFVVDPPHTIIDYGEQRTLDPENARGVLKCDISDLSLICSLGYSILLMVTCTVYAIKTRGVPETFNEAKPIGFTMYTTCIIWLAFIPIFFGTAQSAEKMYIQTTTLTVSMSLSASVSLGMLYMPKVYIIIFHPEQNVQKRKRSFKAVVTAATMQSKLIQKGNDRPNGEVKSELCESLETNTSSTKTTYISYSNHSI
For `COc1ccccc1-c1cc(C(F)(F)F)nc(NCc2ccco2)n1`, the z-score was found to be 0.206.
`CSC1=C(C#N)C(c2ccc3c(c2)OCO3)C2=C(CCCC2=O)N1` (configuration not stated) gave a z-score of 0.613.
Consider `O=C(CSC1=Nc2ccccc2C2=NC(c3ccccc3)C(=O)N12)NCC1CCCO1` (configuration not stated), for which the z-score is 2.65.
`CCn1c(SCC(=O)N=Nc2c(O)[nH]c3ccccc23)nc2ccccc21` returned a z-score of -1.72.
On to `COc1cccc(N2CCN(c3c(C#N)c(C(F)(F)F)nn3C)CC2)c1`, for which the z-score is -0.192.
With `COc1ccc(S(=O)(=O)Oc2ccc3c(c2)O/C(=C\c2cccnc2)C3=O)cc1` the figure was 0.09; with `COn1c(SCc2ccccc2)nc2ccccc2c1=O`, -0.878.
With `c1ccc(C2CCC(N3CCC(N4CCCCC4)CC3)CC2)cc1` (configuration not stated) the figure was -0.423; with `CCC(=O)Nc1ccc(N2CCCCC2)c(C(=O)Nc2ccccc2C)c1`, -0.234.
Under `COC(=O)C1C(=O)C=C(Nc2ccc(F)cc2)CC1c1ccc(OC)cc1` (configuration not stated) stands -0.267; under `COc1ccc(N(C(=O)Cc2cccs2)C(C(=O)NC2CCCCC2)c2cccn2C)cc1OC` (configuration not stated), -1.31.
In the case of `CC(C)(C)NC(=S)NNC(=O)c1ccccc1Cl`, the z-score is -0.0422.
With `Cc1nn(C)c(C(=O)NNC(=S)Nc2ccc(Cl)cc2)c1[N+](=O)[O-]` the figure was -0.115.
Under `Cc1c(Br)c([N+](=O)[O-])nn1C(C)C(=O)NCc1cccnc1` (configuration not stated) stands -0.245; under `Cc1ccc(OCCSc2ncnc3sc(C)c(C)c23)cc1C`, 1.3.
For `CC1CCc2cc(F)cc3c(O)c(C(=O)NCC4CCCO4)c(=O)n1c23` (configuration not stated), the z-score is -0.274.
Under `CCOC(=O)C(C)Sc1nc(N)c(NC(=O)c2ccc(OC)c(OC)c2)c(=O)[nH]1` (configuration not stated) stands 0.0479; under `COc1ccc(CN(C(=O)c2cc3ccccc3oc2=O)C2CCCC2)cc1`, -0.77; under `CC(=O)Nc1ccccc1NC(=O)C(F)(F)F`, -0.257.
`Cc1ccccc1NC(=O)CN1C(=O)S/C(=C\c2cccn2-c2cccc(C(=O)O)c2)C1=O`: the z-score is -0.405.
With `O=C(COC(=O)CN1C(=O)c2ccccc2C1=O)Nc1ccc(S(=O)(=O)N2CCCC2)cc1` the figure was -0.521.
Under `O=C(O)COc1ccc(Cl)cc1CO` stands -0.51; under `C#CCOC(=O)/C(=C/c1ccc(F)cc1)NC(C)=O`, 0.0399; under `COCCN1C(=O)C(=O)/C(=C(/O)c2ccc(S(=O)(=O)N3CCOCC3)cc2)C1c1ccc(C(C)C)cc1` (configuration not stated), 0.0253.
Under `CCCCc1nc(NCCNC(=O)c2ccco2)c(C#N)c2c1CSC(C)(C)C2` stands -2.11; under `COc1ccc2c(CC(=O)Nc3cccc(S(=O)(=O)N4CCOCC4)c3)coc2c1`, -0.307.
In turn, `Cc1nn(C(=O)c2cccnc2)c(C)c1Sc1ccc(Br)cc1` gave a z-score of -0.14.
With `COc1ccc(-c2[nH]c(-c3ccc(F)cc3)nc2SCC(=O)NCc2ccco2)cc1OC` the figure was 1.01; with `COc1cc(NC(=O)COC(=O)c2ccccc2F)cc(OC)c1`, 0.624; with `COc1ccc(C)cc1NC(=O)CN1CCN(S(=O)(=O)c2ccc(Cl)cc2)CC1`, 0.0174.
For `COc1ccc(C)cc1NC(=O)c1cnc2n(c1=O)CCS2`, the z-score is -0.189.
Under `CCCCNC(=O)CC1N=C2c3ccccc3N=C(SCC(=O)Nc3cccc(C)c3)N2C1=O` (configuration not stated) stands -0.317.
Under `CCCS(=O)(=O)N1CCCC(C(=O)NCCCN(C)Cc2ccccc2)C1` (configuration not stated) stands -0.043; under `CCc1ccc(/C=N/NC(=O)c2cc(-c3ccncc3)nc3ccccc23)s1`, 0.812.
Under `O=C1CC(c2ccc(F)cc2)CC(O)=C1C=NCCN1CCNCC1` (configuration not stated) stands 0.679; under `CC(C)c1cc(C(=O)Nc2cccnc2)no1`, -0.13.
On to `COc1cc(C(O)c2nc3ccccc3n2C)cc(OC)c1OC` (configuration not stated), for which the z-score was 0.615.
With `COC(=O)c1ccc(S(=O)(=O)N2CCCCC2)o1` the figure was -0.0667.
With `O=C(CCNC(=O)Cn1ccc2ccccc2c1=O)NCCN1CCc2ccccc2C1` the figure was 0.112; with `CC(=O)c1cccc(NC(=O)Nc2cnn(Cc3ccc(Cl)cc3Cl)c2)c1`, -0.521.
`Cc1ccc(CNS(=O)(=O)c2ccc(C(C)(C)C)cc2)n1C` came in with a z-score of 0.224.
With `CCCC(C)C(=O)Nc1ccc2c(c1)OCCO2` (configuration not stated), the z-score was found to be 0.317.
Take `CCOc1ccc(C(CC(=O)O)NC(=O)c2sc3ccccc3c2Cl)cc1` (configuration not stated): the z-score was -0.958.
`Cc1ccc(NCC(O)C(O)C(O)CO)cc1C` (configuration not stated) displayed a z-score of 0.065.
With `CN1CCN(CCCNC(=O)c2ccc(CSCc3cccc(Cl)c3)o2)CC1`, the z-score is 1.35.
For `N#Cc1c(N)nc(SCc2ccccc2)c(C#N)c1-c1ccco1`, the z-score was active: 11.4.
In the case of `O=C(CSc1nc2ccccc2[nH]1)Nc1ccccc1N1CCOCC1`, the z-score is -0.49.
With `O=C(O)CCCCNCc1ccccc1` the figure was -0.0208; with `Cc1cc(NC(=O)C2CCCN2C(=O)Nc2c(C)cccc2C)ccc1-n1cnnn1` (configuration not stated), -0.226; with `CC(C)(C)NS(=O)(=O)c1ccc(-c2csnn2)s1`, 0.119.
The compound `O=C(NCCc1ccccc1)c1ccnc(/C=N/O)c1` displayed a z-score of 0.0055.
With `O=C(Cc1ccc(-n2c(=O)[nH]c3ccsc3c2=O)cc1)NCc1cccnc1` the figure was -0.236; with `CCC(=O)N/C(N)=N/c1nc(C)c2cc(OC)ccc2n1`, 0.0062; with `Cc1nc(N)sc1-c1csc(Nc2ccccn2)n1`, 0.534.
Under `c1nc(N2CCOCC2)c2sc3nc(N4CCOCC4)c4c(c3c2n1)CCCC4` stands -0.0517; under `CCCn1c(SCC(=O)Nc2nnc(CC)s2)nnc1-c1ccco1`, 0.461.
Under `COC(=O)CN(c1nc(C)c(Cl)c(OC)n1)S(=O)(=O)c1ccc(C)cc1` stands -0.425.
In the case of `COc1ccc(-c2nc(N3CCCCCC3)sc2C(=O)c2ccccc2)cc1`, the z-score was -0.453.
With `COc1ccc(NC(=O)CSc2nc(N)c(C#N)cc2C#N)cc1`, the z-score is -0.295.
`Cc1cc(C)c(NC(=O)NC(=O)c2ccc(F)cc2)c(C)n1`: the z-score is -0.563.
Under `CCCCOc1ccc(C(=O)Nc2ccncc2)cc1` stands -0.848.
With `CC(=O)c1ccc(S(=O)c2ccccc2)cc1` (configuration not stated) the figure was -0.124; with `CCCc1nc(-c2ccccc2O)n(-c2ccccc2)n1`, -0.0141.
With `O=C(Nc1nnc(-c2ccc3c(c2)CCCC3)o1)c1ccccc1Cl` the figure was active: 5.26; with `COC(=O)/C(=C\Nc1ccccc1N)c1ncc(C(F)(F)F)cc1Cl`, -0.202; with `Cn1cnnc1SC1CCCCC1NS(=O)(=O)c1ccc(Cl)cc1` (configuration not stated), -0.287.
`O=C(Nc1cccc(C(F)(F)F)c1)C1C2CC3OC(=O)C1C3C2` (configuration not stated) had a z-score of 0.119.
`Cc1cc(C(=O)CN2C(=O)NC3(CCCCC3)C2=O)c(C)n1-c1ccc2c(c1)OCO2` had a z-score of -0.621.
With `CCOC(=O)c1cnc2ccc(C)cc2c1OCc1cc(F)cc(F)c1` the figure was -0.633; with `CC(C)c1cc(C(=O)Nc2cccc(C(F)(F)F)c2)no1`, 0.337; with `COc1ccc(C(C)=O)cc1CSc1nc2ccccc2c(=O)n1-c1ccccc1`, 0.112.
With `O=C(NCCCn1ccnc1)c1cc(-c2ccc3c(c2)OCO3)on1`, the z-score was -0.842.
The compound `O=C(CN1CCN(S(=O)(=O)c2ccccc2)CC1)NC(=O)NC1CCCCC1` registered a z-score of -0.406.
With `Cc1nc2c(o1)CCc1ccccc1C2N1CCN(C)CC1` (configuration not stated) the figure was 0.153; with `O[C@@H](CNC[C@H](O)c1ccccc1)c1ccccc1`, -1.29.
Compound `O=P(O)(CCc1ccccc1)C(O)c1ccccc1` (configuration not stated) gave a z-score of -0.89.
Under `Cc1nc2cc3c(cc2c(C)c1C(=O)OC(C)C)OCO3` stands -0.332.
With `O=C1CN(C(=O)C2CCCC2)CCN1` the figure was -0.114; with `CCn1c(SCC(=O)c2ccc(O)c(O)c2)nnc1-c1ccc(C)cc1`, -0.297; with `O=C1CS/C(=N\c2ccccn2)N1C1CCCCC1`, -0.393.
With `COC(CN1C(=O)C(O)=C(C(C)=O)C1c1ccccn1)OC` (configuration not stated) the figure was 0.0247.
Take `COC(=O)c1[nH]c2ccc(C)cc2c1NC(=O)Oc1ccccc1`: the z-score was 0.176.
`Cc1ccc(NC(=O)c2ccc(CNc3c(N4CCOCC4)c(=O)c3=O)cc2)cc1`: the z-score is -0.0947.
On to `COc1ccc(CSc2nnc(Cc3sc(-c4ccccc4)nc3-c3ccccc3)o2)cc1`, for which the z-score was -0.0107.
For `NS(=O)(=O)c1ccc(CCNC(=O)c2cccnc2)cc1`, the z-score came out at 0.181.
Under `Cc1nnc(NCc2ccco2)s1` stands -0.797; under `CCN(Cc1ccccc1)C(=O)CSc1nc(C)cc2c1C(=O)OC2`, -0.695; under `CC(C)(C)c1cc(C(=O)O)n[nH]1`, 0.168.
`CC(C)CNC(=O)COc1ncnc2ccccc12`: the z-score came to 0.0239.
Compound `Cc1ccc(OC(=O)c2ccc(N3CCOCC3)c([N+](=O)[O-])c2)cc1` had a z-score of 0.485.
Under `CC(C)(O)c1cc(=O)sc2nc3ccccc3n12` stands 0.0157; under `COCCCNC(=O)c1c(N)n(-c2ccc3c(c2)OCO3)c2nc3ccccc3nc12`, -0.0775; under `COc1cc(C(=O)NCC(=O)OCC(=O)c2ccc[nH]2)cc(OC)c1OC`, -0.277.
For the compound `CCC(/C=N/NC(=O)CCCCC(=O)N/N=C/C(CC)CC)CC`, the z-score is -0.362.
Under `O=C(c1coc(=O)c(Br)c1)N1CCCc2ccccc21` stands 0.587.
Under `NC(=O)CSc1ncnc2c1oc1ccccc12` stands -0.353; under `COC(=O)C(Cc1cnc(Cl)s1)(C(=O)OC)c1ccc([N+](=O)[O-])cc1[N+](=O)[O-]`, 0.221; under `CC(=O)N(CCC(Cc1ccccc1)c1ccc2c(c1)OCO2)Cc1ccccc1F` (configuration not stated), -0.0818.
Under `CC(C)C(NC(=O)CN(c1cccc(F)c1)S(C)(=O)=O)C(C)C` stands 0.00518; under `COC(=O)c1ccc(S(=O)(=O)N2C3CCC2CC(NC(=O)NC2CCCCC2)C3)cc1` (configuration not stated), -0.0401.
Take `O=C(CCCN1C(=O)c2ccccc2C1=O)N1CCC(c2ccccc2)C1` (configuration not stated): the z-score was -0.552.
`CCOc1ccccc1-n1c(SCC(=O)Nc2ccc(CC)cc2)nc2n[nH]c(C)c2c1=N` registered a z-score of -0.543.
Consider `COc1ccc(C(=O)c2ccc(Cl)cc2)c2ccccc12`, for which the z-score was -0.31.
Consider `O=C1CC(Nc2ccc(N3CCOCC3)cc2)C(=O)N1C1CCCCC1` (configuration not stated), for which the z-score is -0.286.
`CCn1c(SCC(=O)Nc2nc3c(s2)CCCC3)nnc1-c1ccccc1` registered a z-score of -0.982.
`O=C(O)CSc1nnc(SCc2cccc3ccccc23)s1`: the z-score was -0.421.
Regarding `CC1CCN(C(=O)CN(c2ccc3c(c2)OCO3)S(C)(=O)=O)CC1`, the z-score worked out at 0.138.
Under `CCC(=O)Nc1ccccc1C(=O)NC1CCCCC1` stands 0.175; under `Cc1ccc(F)cc1NC(=O)c1ccc(NS(=O)(=O)c2ccc(Br)s2)cc1`, -0.286.
As to `CN(C)c1nc(Oc2ccc(N)cc2)nc(N(C)C)n1`, the z-score amounted to 0.322.
With `CCn1c(SCc2nc(-c3ccccc3)no2)nc2ccccc21` the figure was active: 3.16.
Under `O=C(CN1C(=O)S/C(=C\C=C\c2ccccc2)C1=O)Nc1ccc(O)cc1` stands -0.208.
